# Data published in PMC4336329 (PLoS ONE, 2015).
# The campaign covered roughly 310,000 compounds. About 2,200 (0.71%) showed an effect of 50% or more. The effect is printed as a negative number. This is one part of the list.
# Biological target: human ether-à-go-go-related gene (hERG) potassium channel (human, UniProt Q12809)
# Assay: primary screen, population patch clamp on CHO cells stably expressing hERG
# Chain of human ether-à-go-go-related gene (hERG) potassium channel (Q12809 whole entry, looked up): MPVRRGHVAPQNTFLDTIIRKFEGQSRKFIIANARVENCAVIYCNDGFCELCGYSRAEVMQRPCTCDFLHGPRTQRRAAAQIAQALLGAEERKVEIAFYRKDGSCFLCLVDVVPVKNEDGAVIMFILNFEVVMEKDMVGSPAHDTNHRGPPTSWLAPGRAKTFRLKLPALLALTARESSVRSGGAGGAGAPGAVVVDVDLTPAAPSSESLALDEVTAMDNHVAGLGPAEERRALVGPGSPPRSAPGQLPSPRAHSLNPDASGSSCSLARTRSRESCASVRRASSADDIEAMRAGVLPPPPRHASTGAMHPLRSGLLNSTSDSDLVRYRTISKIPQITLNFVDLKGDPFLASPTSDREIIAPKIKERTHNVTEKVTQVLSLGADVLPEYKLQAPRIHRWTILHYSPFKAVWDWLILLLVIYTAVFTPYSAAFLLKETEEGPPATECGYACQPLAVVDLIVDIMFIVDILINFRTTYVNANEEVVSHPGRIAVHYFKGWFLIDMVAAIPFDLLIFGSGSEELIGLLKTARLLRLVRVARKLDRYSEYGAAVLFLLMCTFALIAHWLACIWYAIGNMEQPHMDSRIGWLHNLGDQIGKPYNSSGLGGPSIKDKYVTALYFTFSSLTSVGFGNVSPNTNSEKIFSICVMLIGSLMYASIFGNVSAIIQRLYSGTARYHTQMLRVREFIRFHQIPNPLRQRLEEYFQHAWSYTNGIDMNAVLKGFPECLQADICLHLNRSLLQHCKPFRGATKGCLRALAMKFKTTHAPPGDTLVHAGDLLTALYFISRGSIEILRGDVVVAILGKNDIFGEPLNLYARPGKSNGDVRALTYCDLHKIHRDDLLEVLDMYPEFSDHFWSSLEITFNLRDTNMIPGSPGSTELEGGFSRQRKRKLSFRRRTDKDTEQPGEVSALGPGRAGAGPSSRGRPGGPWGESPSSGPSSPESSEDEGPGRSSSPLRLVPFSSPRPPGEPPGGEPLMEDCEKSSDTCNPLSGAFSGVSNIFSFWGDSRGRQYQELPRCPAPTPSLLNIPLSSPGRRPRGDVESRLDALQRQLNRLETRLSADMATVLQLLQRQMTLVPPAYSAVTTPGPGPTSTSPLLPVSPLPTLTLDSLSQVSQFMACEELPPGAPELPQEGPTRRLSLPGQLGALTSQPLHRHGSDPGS
row,SMILES,"hERG current change (%, negative = inhibition) at 1uM [%]"
1,O=C(c1ccccc1)N(Cc1cccc(Br)c1)C1CCS(=O)(=O)C1 (stereo not drawn),-0.927
2,Fc1ccc(CNc2nc(-c3cccnc3)nc3ccccc23)cc1,4.06
3,O=S(=O)(Nc1ccc(Cc2ccncc2)cc1)N1CCCC1,8.02
4,Oc1ccc2ccccc2c1/C=N/Nc1nnc(-c2ncc[nH]2)c2ccccc12,17.4
5,CC1CCN(C(=O)c2ccc(COc3ccccc3Cl)o2)CC1,5.5
6,Cc1cc(NC(=O)C2Oc3ccccc3OC2C)no1 (stereo not drawn),17.8
7,Cc1ccc(NC(=O)CSCC(=O)Nc2ccc(N3CCOCC3)c(Cl)c2)cc1,5.04
8,Cc1ccc(CCNC(=O)c2nc(CS(=O)(=O)c3ccc(Cl)cc3)no2)cc1,22.4
9,CCN1C(=O)[C@H]2[C@@H](c3ccc(C)cc3)N3C(=O)N(c4cccc(C)c4)C(=O)[C@@]3(Cc3ccccc3)[C@H]2C1=O,6.48
10,CCN(CC)CC(=O)N1c2ccccc2Sc2ccc(Cl)cc21.Cl,15.2
11,CCCCCSc1cc(OC)c(CCN)cc1OC.O=C(O)/C=C\C(=O)O,-11.6
12,O=C(COC(=O)/C=C/c1ccccc1[N+](=O)[O-])NCC(F)(F)F,4.11
13,CCOC(=O)Cc1nnc(NC(=O)c2ccco2)s1,5.45
14,c1ccc(NC(=NCc2ccco2)c2ccccc2)cc1,6.52
15,CC(Oc1ccc(Cl)cc1Cl)C(=O)NN=C1CCN(C)CC1 (stereo not drawn),4.85
16,O=C(Cc1ccccc1)NCC(=O)N1CCN(c2ccccc2)CC1,11.4
17,O=C(Nc1ccc(Cc2ccncc2)cc1)c1ccc(N2CCOCC2)c([N+](=O)[O-])c1,-14.3
18,COc1ccc(CCNC(=O)c2c(N)n(CCN3CCOCC3)c3nc4ccccc4nc23)cc1OC,3.51
19,CCOC(=O)/C(=C/c1c[nH]c2ccccc12)NC(C)=O,2.55
20,O=[N+]([O-])c1cccc2nc(-c3ccccc3)c(-c3ccccc3)nc12,5.52
21,Cc1cc(C)c(S(=O)(=O)/N=C2\C=C(NS(=O)(=O)c3ccccc3)C(=O)c3ccccc32)c(C)c1,-1.09
22,CCC(=O)Nc1ccccc1Oc1ccccc1,12.7
23,CC(=O)Nc1ccc2[nH]c(C)c(CC=C(Cl)Cl)c(=O)c2c1,10.7

row,SMILES,"hERG current change (%, negative = inhibition) at 1uM [%]"
1,FC(F)(F)c1cccc(NC(=S)NCCN2CCOCC2)c1,0.747
2,COc1ccc(NC(=O)NNS(=O)(=O)c2ccc(Br)cc2)cc1,17.8
3,Cc1ccc(O)c(Sc2cc(C)ccc2O)c1,6.97
4,Cc1sc2ncn(CC(=O)N3CCOCC3)c(=O)c2c1-c1ccccc1,12.8
5,Cc1cc(C)n2nc(CCc3ccccc3)nc2n1,-15.2
6,Cc1ccc2nc(NCc3ccccc3)c(C=NCc3ccccc3)c(=O)n2c1,6.24
7,COc1ccc(CCN2C(=S)N(C)C(=O)C2CC(=O)Nc2ccc(OC)cc2)cc1 (stereo not drawn),10.4
8,COc1ccc(-c2noc(=O)n2Cc2ccccc2Cl)cc1,-1.41
9,COC(=O)c1c(NS(=O)(=O)c2cccs2)sc2c1CCCC2,10.6
10,CCN(CC)Cc1c(-c2ccccc2)[nH]c2ccc(C)cc2c1=O,18.4
11,CNC(=O)CC1C(=O)N(c2ccc(F)cc2)C(=S)N1NC(=O)c1ccc(Cl)cc1 (stereo not drawn),6.02
12,Cc1ccc(C2c3c(oc4ccccc4c3=O)C(=O)N2CCCN2CCOCC2)o1 (stereo not drawn),7.56
13,CCC(CC)C(=O)N1CCN(c2cccc(C)c2C)CC1,13.3
14,Cc1cc(=O)[nH]c(SCC(=O)N2CCCC(C)C2)n1 (stereo not drawn),16.8
15,CNC(=O)c1cc(NC(=O)CCn2nc(-c3ccc(C)cc3)c3ccccc3c2=O)ccc1OC,13.9
16,Cc1cccc(NC(=O)c2ccc(C(=O)Nc3cccc(C)c3)nc2)c1,23.7
17,CC1CC(C)CN(CC(C)(C)NS(=O)(=O)c2ccccc2)C1 (stereo not drawn),7.86
18,CC1(c2ccc(OC(F)F)cc2)NC(=O)N(CC(=O)Nc2ccc3c(c2)OCO3)C1=O (stereo not drawn),5.22
19,Cc1ccc2[nH]c(O)c(N=NC(=O)C(C)n3cnc4ccccc4c3=O)c2c1 (stereo not drawn),8.8
20,CCN(CC)S(=O)(=O)c1ccc(NC(=S)Nc2ccc(F)cc2)cc1,17.3
21,CCN(CC)CCOC(=O)CCc1cccc2ccccc12.O=C(O)C(=O)O,-3.77
22,O=C(Nc1cc(S(=O)(=O)N2CCCCC2)ccc1N1CCCCC1)C1CC1,-9.12
23,Cl.NC(CC(=O)O)c1ccc(Br)cc1 (stereo not drawn),10.7

row,SMILES,"hERG current change (%, negative = inhibition) at 1uM [%]"
1,Cc1ccc(SCC(=O)Nc2cccnc2)cc1,12.7
2,CC(=O)Nc1ccc(C(=O)OCC(=O)Nc2ccccc2Sc2ccccc2)cc1,13.6
3,S=C(NCCc1ccccn1)Nc1ccc(Cl)cc1Cl,10.3
4,Cc1cc(NC(=O)C(Cl)c2ccccc2)no1 (stereo not drawn),12.3
5,CCOc1ccc(Nc2nc3c(c(=O)[nH]2)CCCC3)cc1,8.9
6,CCN(Cc1ccccc1)S(=O)(=O)c1cc(C(=O)NC(C)C2CC3CCC2C3)ccc1OC (stereo not drawn),7.71
7,Cl.O=C(CN1CCCCC1)N1c2ccccc2Sc2ccc(C(F)(F)F)cc21,1.3
8,Oc1ccccc1C1=Nc2ncnn2C(c2ccccc2)C1 (stereo not drawn),5.87
9,CC(C)O.CCc1ccc(-n2c(O)c(/C=N/N3CCCCC3c3cccnc3)c(=O)[nH]c2=O)cc1 (stereo not drawn),11.8
10,c1ccc(Cn2nnc3ccccc32)cc1,10
11,O=C(CCS(=O)(=O)c1ccc(Br)cc1)N1CCN(c2ccc(Cl)cc2)CC1,-9.99
12,COc1cc(NS(=O)(=O)c2ccc(C)cc2)c2ncccc2c1,-2.95
13,CC(CNC(=O)Cn1ccc(N)nc1=O)c1ccccc1 (stereo not drawn),8.89
14,COc1ccc(C(=O)C2CCCN(Cc3ccon3)C2)c(OC)c1 (stereo not drawn),-17.2
15,CC(OC(=O)c1ccc(NS(=O)(=O)c2ccc3[nH]c(=O)[nH]c3c2)cc1)C(N)=O (stereo not drawn),17.1
16,CCOc1ccc(NC(=O)CN2CCN(CC(=O)Nc3ccc(OC)cc3OC)CC2)cc1,-58.2
17,Cc1cc2[nH]c(=O)c3ccccc3n2n1,17.6
18,Cc1nnc2ccc(N3CCC4(CC3)OCCO4)nn12,5.97
19,CN(Cc1ccccc1)Cc1c(O)ccc2ccccc12,9.42
20,COc1ccc(-c2cc(O)cc(O)c2)cc1,0.626
21,NS(=O)(=O)c1ccc(NC(=O)CSc2nc3ccccc3nc2N2CCOCC2)cc1,13.9
22,COc1ccc(CCn2c(C3CCCCC3)nc3c(c(=O)c4ccccc4n3C)c2=O)cc1,7.34
23,CN1CCN(c2ccc(CNS(=O)(=O)c3ccccc3)cc2)CC1,10.6

row,SMILES,"hERG current change (%, negative = inhibition) at 1uM [%]"
1,CCOC(=O)COn1c(=O)c(=O)n(O)c2ccccc21,10.4
2,Cl.c1ccc(CC2CCCNC2)cc1 (stereo not drawn),4.85
3,O=C(COc1ccc(C(=S)N2CCOCC2)cc1)Nc1ccccc1C(F)(F)F,12.7
4,CCCCn1c(SCc2cccc([N+](=O)[O-])c2)nc2ccsc2c1=O,13.8
5,COc1ccc(C2CC(c3cccs3)=NN2C(=O)CSc2nnc(N)s2)cc1OC (stereo not drawn),4.1
6,O=c1ccnc(SCCc2ccc([N+](=O)[O-])cc2)[nH]1,1.46
7,CCCn1c(SCC(=O)Nc2cc(C(=O)O)ccc2C)nc2sc3c(c2c1=O)CCC3,11.6
8,COc1ccc(CCN=C2SCC(=O)N2C)cc1OC,8.91
9,Cc1cccc(NC(=O)CN(C)S(=O)(=O)c2cccs2)c1,11.8
10,CCOC(=O)c1nn(-c2sc(C(=O)OC)c(C)c2C(=O)OC)cc1O,9.99
11,NC(=O)c1ccccc1OCC(=O)Nc1cccnc1Cl,5.88
12,CCOC(=O)c1c(N)sc2c1CCCC2=O,16.9
13,O=C(CCC1CCN(Cc2ccc(Cl)cc2)CC1)NC1CC1,-45.9
14,C=CCSc1nnc(NC(=O)COc2ccccc2)s1,2.2
15,Cc1ccc[n+](C2C(c3ccc([N+](=O)[O-])cc3)C(C#N)=C([S-])NC2(O)C2CC2)c1 (stereo not drawn),10.3
16,Cc1cc(-c2nnc(-c3cccc(C(F)(F)F)c3)o2)no1,12.1
17,CC1CCC2(CC1)NC(=O)N(CC(=O)N1CCN(C(=O)c3ccco3)CC1)C2=O (stereo not drawn),1.86
18,CCOc1cc2c(cc1OCC)C(C(=O)O)C(c1cc(Br)c(O)c(OC)c1)N(C)C2=O (stereo not drawn),8.8
19,CN(Cc1ccccc1)C(=O)c1ccc(COc2ccccc2)cc1,13
20,COc1ccccc1N1CCN(CC(O)c2c(C)[nH]c3ccccc23)CC1 (stereo not drawn),-19
21,CC(N)Cc1c[nH]c2cc3c(cc12)OCCO3.Cl (stereo not drawn),7.44
